The whole screen tested about 320,000 compounds, of which about 200 (0.062%) were called active. Inconclusive results, whose numbers are uncertain, are shown with a selection of clear calls. The call rests on the fitted dose curve; in most records, active means well fitted activation curve with a large enough effect; inconclusive means small, poorly fitted or top-dose-only effect; inactive means no such curve, though single readings can be large or run the other way. No potency is given beside an inconclusive call; the fits are too rough.
Test: qHTS assay for re-activators of p53 using a Luc reporter; further: nearly all actives have a fitted effect of over 45% in size; on activity change, positive = activation: % of control where 0% means no effect
Conditions: H1299 p53-A138V BP100-luciferase reporter, luminescence, 24 h; series mostly up to 92.2 µM; activity change, positive = activation: at the top concentration
Procedure, shortened: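 p53-null H1299 cells stably carrying temperature-sensitive p53-A138V and a BP100-luciferase reporter were pinned with compounds (4-point, 1:5 series) and held 24 hrs at 37 deg C. Luminescence was read 10 min after detection reagent.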
Potency means the concentration at half of the fitted maximal effect; tags describe the fitted curve by direction and shape.

Compound | Potency | activity change, positive = activation
Cc1cc(C(=O)Nc2sc(C)c(-c3ccc(F)cc3)c2C(N)=O)no1 | inconclusive [activator, partial curve, poor fit] | 
CCC(CO)Nc1ncnc2c1cnn2-c1ccc(OC)cc1 (centres undefined) | inconclusive [activator, full curve, poor fit] | 
Cc1ccn2c(c1)nc(=O)c1cc(S(=O)(=O)N3CCOCC3)ccc12 |  | inactive: 4.15%
COc1cccc(-c2cc(C(=O)NCC3CCCO3)c3ccccc3n2)c1 (centres undefined) |  | inactive: -10.1%
COc1ccc2c(c1)C1=NN(/C(C)=C/C(C)=O)C(c3ccc(F)cc3)C1CC2 (centres undefined) | inconclusive [activator, partial curve, poor fit] | 
CC[N+](CC)(CC)CCOc1cccc(OCC[N+](CC)(CC)CC)c1OCC[N+](CC)(CC)CC |  | inactive: 3.76%
O=C(CSc1nnnn1-c1ccc(Cl)cc1)NC(=O)Nc1ccc2c(c1)OCCO2 | inconclusive [activator, full curve, poor fit] | 
O=C(N/N=C/c1ccccn1)c1cc([N+](=O)[O-])cc([N+](=O)[O-])c1 | inconclusive [activator, single point] | 
Cc1ccc(C(=O)Nc2nnc(-c3ccco3)o2)cc1 | inconclusive [activator, full curve, poor fit] | 
O=C1C(Cc2ccccc2)Nc2ncnc(N3CCN(c4ccccc4)CC3)c2N1Cc1ccc(Cl)cc1 (centres undefined) |  | inactive: -5.71%
CN1CCC(=NNC(=O)CN(c2ccc([N+](=O)[O-])cc2)S(=O)(=O)c2ccccc2)CC1 |  | inactive: -2.53%
Nc1[nH]c2cc([N+](=O)[O-])ccc2c1-c1ccccn1 |  | inactive: 5.08%
CCn1cc(CN2CCCC(C(=O)Nc3cccc(-c4cc5ccccc5[nH]4)c3)C2)c(C)n1 (centres undefined) | inconclusive [activator, partial curve, poor fit] | 
CCC1(C)Cc2nc3[nH]c(=S)n(-c4ccccc4)c(=O)c3cc2CO1 (centres undefined) |  | inactive: -8.35%
Cn1ncc(Br)c1NC(=O)Nc1ccc(Cl)cc1 |  | inactive: -5.97%
CN1C(=O)/C(=C/C=C2\SCCN2C)SC1=S | inconclusive [activator, partial curve, poor fit] | 
Cc1cc(NC(=O)c2ccc(C)o2)no1 | inconclusive [activator, single point] | 
COc1ccc(C(=O)OCC(=O)c2ccc(CNC(C)=O)s2)cc1 | inconclusive [activator, partial curve, poor fit] | 
CCc1noc(C)c1C(=O)OCC(=O)Nc1ccc2c(c1)OCO2 |  | inactive: -10.2%
CCN(CC)S(=O)(=O)c1ccc(Nc2nc3ccccc3n3nnnc23)cc1 | inconclusive [activator, partial curve, poor fit] | 
CNC(=O)c1ccccc1-c1ccccc1 |  | inactive: -0.341%
CCC(C)Nc1nc(SC(C(C)=O)C(C)=O)nc(N(C)C)n1 (centres undefined) |  | inactive: -3.94%
Cc1ccc(-c2nc(CN(C)Cc3cccc4cnccc34)c(C)o2)s1 |  | inactive: -1.52%
S=C(NCc1ccco1)Nc1ccc(Cl)cc1Cl | inconclusive [activator, partial curve, poor fit] | 
Cc1ccc2cc(CCNC(=O)c3cccs3)c(=O)[nH]c2c1 | inconclusive [activator, partial curve, poor fit] | 

Compound | Potency | activity change, positive = activation
N/C(=N\OC(=O)Cc1ccccc1)c1ccccn1 | inconclusive [activator, partial curve, poor fit] | 
OCCN1CCN(CC(O)COC(c2ccc(F)cc2)c2ccc(F)cc2)CC1 (centres undefined) |  | inactive: -6.36%
CN(C)C(=O)OCC1COc2ccccc2O1 (centres undefined) | inconclusive [activator, partial curve, poor fit] | 
CC(C)CNS(=O)(=O)c1ccc(CCC(=O)N2CCN(c3ccccc3)CC2)cc1 |  | inactive: -4.27%
Cc1occc1-c1nc(-c2ccncc2)no1 | inconclusive [activator, partial curve, poor fit] | 
O=C(C1CCN(c2nnc(-n3cccc3)s2)CC1)N1CCCCC1 | inconclusive [activator, partial curve, poor fit] | 
Cn1c(=O)c(-c2ccccc2)nc2ccccc21 | inconclusive [activator, partial curve, poor fit] | 
O=C(Nc1ccc2c(c1)CCC2)c1cccc(F)c1 | inconclusive [activator, partial curve, poor fit] | 
O=C1C2C3C=CC(C4CC34)C2C(=O)N1/N=C/c1ccc(-c2ccc([N+](=O)[O-])cc2)o1 (centres undefined) |  | inactive: -0.104%
Cc1cccc(N/C=C/C(=O)c2ccc(Cl)cc2)c1 | inconclusive [activator, full curve, poor fit] | 
Cn1cccc1C(=O)OCc1cc(Cl)cc2c1OCOC2 | inconclusive [activator, partial curve, poor fit] | 
CCOc1ccc(N(CC(=O)Nc2ccc(C)cc2C)S(C)(=O)=O)cc1 | inconclusive [activator, partial curve, poor fit] | 
COc1ccc(N(CC(=O)NC2CCCC2)S(=O)(=O)c2c(C)[nH]c(=O)[nH]c2=O)cc1 |  | inactive: 0.156%
O=C(Nc1ccc2c(c1)OCCO2)c1cccc(S(=O)(=O)N2CCCCC2)c1 |  | inactive: 4.71%
COc1ccccc1S(=O)(=O)Cc1ccc(C(=O)N2CCN(c3cccc(Cl)c3)CC2)o1 | inconclusive [activator, single point] | 
c1ccc(CN2CCC(N3CCC(N4CCCCCC4)CC3)CC2)cc1 | inconclusive [activator, partial curve, poor fit] | 
CCn1ccc(C(=O)Oc2ccc(C(C)C)cc2)n1 |  | inactive: 11.9%
COc1ccc(N/N=C/c2c(C(=O)O)ccc3ccccc23)cc1 | inconclusive [activator, full curve, poor fit] | 
CC(C)c1ccc(NC(=O)COc2ccccc2)cc1 | inconclusive [activator, single point] | 
NC(=S)N/N=C/c1ccccc1[N+](=O)[O-] |  | inactive: 2.1%
CCN(CC1CCCO1)C(=O)CCc1nnc(CCc2ccc(OC)cc2)o1 (centres undefined) | inconclusive [activator, single point] | 
c1ccc(CNc2ncnc3c2cnn3-c2ccccc2)cc1 |  | inactive: 16.6%
O=C(CSc1cccc2cccnc12)Nc1ccccc1F |  | inactive: 3.39%
Cc1cccc(OCc2nnc(N)s2)c1C | inconclusive [activator, partial curve, poor fit] | 
COc1ccc(C(CC(=O)NC(C)(C)C)n2cccc2)cc1 (centres undefined) | inconclusive [activator, single point] | 

Compound | Potency | activity change, positive = activation
CCC(C)C(=O)OCC1(c2ccc(C)cc2OC(=O)C(C)C)CO1 (centres undefined) |  | inactive: -16.6%
Cn1c(SCc2ccccc2)nnc1-c1ccc2c(c1)OCO2 | inconclusive [activator, partial curve, poor fit] | 
COc1cccc(CNc2ccc(N3CCCCC3)cc2)c1OC | inconclusive [activator, single point] | 
CS(=O)(=O)c1ccccc1-c1nnc(-c2ccc(Cl)cc2)o1 |  | inactive: 1.71%
COc1ccc(C2N(c3ccc(OC)cc3)C(=S)N3CCCN23)cc1 (centres undefined) |  | inactive: 7.6%
COc1cc(C)ccc1OCCCOc1ccccc1Br | inconclusive [activator, full curve, poor fit] | 
C/C=C(/C)C(=O)Nc1cccc(C2=NOC3(C2)C[C@H](C(N)=O)N(C(=O)c2ccc(Cl)cc2)C3)c1 (some centres undefined) |  | inactive: -0.501%
Cn1c(=O)c(=O)n(C)c2cc(S(=O)(=O)CCC(=O)Nc3cccc(C(F)(F)F)c3)ccc21 |  | inactive: -1.62%
Cc1cccc2c1[nH]c1nc(N/N=C\c3ccco3)nnc12 |  | inactive: -4.13%
C/C(=N\Nc1ccc(C)c(Cl)c1)c1cccnc1 |  | inactive: 11.8%
O=C(N/N=C/c1ccc(Cl)cc1Cl)c1n[nH]c2c1CCCC2 | inconclusive [activator, partial curve, poor fit] | 
Cc1ccc(-n2cc3ccc([N+](=O)[O-])cc3n2)cc1 | inconclusive [activator, partial curve, poor fit] | 
COC(=O)C1=C(C)Nc2nnnn2C1c1cccs1 (centres undefined) | inconclusive [activator, single point] | 
O=C(Nc1ccc2c(c1)OCCO2)c1cnn(-c2ccccc2)n1 | inconclusive [activator, partial curve, poor fit] | 
COc1ccc(NS(=O)(=O)c2cccc(NC(=O)c3ccc(S(=O)(=O)N4CCCCCC4)cc3)c2)cc1 |  | inactive: 2.2%
COc1ccc(C(C)(C)C)cc1NC(=O)Nc1ccc2c(c1)OCO2 | inconclusive [activator, partial curve, poor fit] | 
CC(=O)c1cccc(NC(=O)Oc2ccccc2)c1 |  | inactive: 1.95%
Oc1ccccc1N1CCN(c2ncnc3scc(-c4ccc(F)cc4)c23)CC1 |  | inactive: 8.46%
O=C(CCN1CCN(c2ccccc2)CC1)N/N=C/c1ccccc1OC(F)F |  | inactive: 2.63%
CC(C)c1cc(CNC(=O)CCc2nnc(CCCc3ccccc3)o2)on1 | inconclusive [activator, single point] | 
Cc1nn(C)c(C(=O)Nc2ccc(S(=O)(=O)NC34CC5CC(CC(C5)C3)C4)cc2)c1Br | inconclusive [activator, full curve] | 
O=c1cc(COc2ccccc2[N+](=O)[O-])nc2sccn12 |  | inactive: 9.92%
Cn1c(=O)c2c(nc(NCc3ccco3)n2C/C=C/c2ccccc2)n(C)c1=O |  | inactive: -7.7%
COC(=O)c1sccc1NC(=O)/C=C/c1ccc(Cl)cc1Cl | inconclusive [activator, full curve, poor fit] | 
